Reference: PubChem BioAssay AID2100 (National Center for Advancing Translational Sciences (NCATS), 2009)
Screen size: about 300,000 compounds; about 1,200 (0.4%) were called active. The inconclusive results got no clear call from the source; some entries with a clear call stand among them for comparison. The call rests on the fitted dose curve; in most records, active means well fitted inhibition curve with a large enough effect; inconclusive means small, poorly fitted or top-dose-only effect, or another doubt; inactive means no such curve, though single readings can be large or run the other way. A potency beside an inconclusive call is a rough fit, not a confirmed value.

target: Lysosomal alpha-glucosidase (Homo sapiens) (UniProt P10253); test: qHTS Assay for Inhibitors and Activators of Human alpha-Glucosidase Cleavage of Glycogen; details: recombinant GAA, glycogen substrate, Amplex Red glucose oxidase fluorescence; series mostly up to 76.4 µM
Summary of the method: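 Recombinant enzyme (4 nM final) with compounds titrated up to 77 uM and bovine liver glycogen (30 ug) in citrate pH 5.0, 0.01% Tween-20, 37 C 40 min. Released glucose detected by Amplex Red/glucose oxidase (Ex 573/Em 610); AC50 from Hill fits.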
Potency means the concentration at half of the fitted maximal effect.

Row | SMILES | Potency
1 | CCCn1c(=O)c2ccccc2n2c(SCCNCCO)nnc12 | inconclusive: 22.4 µM [inhibitor, partial curve]
2 | Clc1ccc(CN2CCN(/N=C/c3ccco3)CC2)cc1 | inconclusive: 50.1 µM [inhibitor, single point]
3 | C=CCn1c(=O)c2ccccc2n2c(=S)[nH]nc12 | inconclusive: 14.1 µM [inhibitor, partial curve]
4 | O=C(NNc1nccc(C(F)(F)F)n1)Nc1cccc(Cl)c1 | inconclusive: 19.8 µM [inhibitor, partial curve]
5 | Cc1nnc(N/N=C/C2CC=CCC2)[nH]c1=O (stereo unspecified) | inconclusive: 31.4 µM [inhibitor, partial curve]
6 | Cc1cc(NC(=O)CN2CCN(c3ccccc3O)CC2)no1 | active: 12.6 µM
7 | CCn1cc(-c2cc(C(=O)O)on2)c(C)n1 | inconclusive: 11.1 µM [inhibitor, full curve, poor fit]
8 | CC1CCCC(NC(=O)c2ccncc2)C1C (stereo unspecified) | inactive
9 | O=C(CN1CC(=O)Oc2ccccc21)OCC(=O)c1ccccc1 | inconclusive: 6.26 µM [inhibitor, partial curve]
10 | CN1CCN(S(=O)(=O)c2cccc(C(=O)Nc3sc4c(c3-c3nc5ccccc5[nH]3)CCCC4)c2)CC1 | inactive
11 | CC(=Nc1cc(C(=O)c2ccccc2)ccc1N)C1=C(O)CC(C)(C)CC1=O | inactive
12 | Nc1ccc(Nc2nc(-c3ccncc3)cs2)cc1 | active: 14.1 µM
13 | Clc1ccc(-n2c(Cc3ccccc3)nnc2SCc2nc(-c3cccs3)no2)cc1 | inactive
14 | Nc1ccc(Nc2ccccc2)c(Cl)c1 | active: 35.5 µM
15 | COc1ccc(C2c3c(oc4cc(C)cc(C)c4c3=O)C(=O)N2Cc2ccco2)cc1OC (stereo unspecified) | inconclusive: 56.2 µM [inhibitor, single point]
16 | O=C(CN1CCN(c2ccccn2)CC1)Nc1ccc(Oc2ccccc2)cc1 | inconclusive: 39.8 µM [inhibitor, single point]
17 | Cc1ccc(N=Nc2c(C)[nH]n(C(N)=S)c2=O)cc1 | inactive
18 | CCC(C)(C)C1CCC(=NNC(=O)c2ccc(Br)o2)CC1 (stereo unspecified) | inconclusive: 11.1 µM [inhibitor, partial curve]
19 | CCCC1=C(C(=O)OCC)C(c2ccc(N(C)C)cc2)n2ncnc2N1 (stereo unspecified) | inconclusive: 39.8 µM [inhibitor, partial curve]
20 | COc1ccc(N2CCN(C(=O)c3cc(-c4ccc(C)c(F)c4)on3)CC2)cc1 | inconclusive: 10 µM [inhibitor, partial curve]
21 | Cc1ccc(O)c(NC(=O)CCC2CCCCC2)c1 | inconclusive: 7.08 µM [inhibitor, full curve]
